Assay results taken from paper PMC4336329 (PLoS ONE, 2015).
The campaign covered roughly 310,000 compounds. About 2,200 (0.71%) showed an effect of 50% or more. Effects have a minus sign here. This is one part of the list.

Biological target: human ether-à-go-go-related gene (hERG) potassium channel (human, UniProt Q12809)
Experiment: primary screen, population patch clamp on CHO cells stably expressing hERG

Chain of human ether-à-go-go-related gene (hERG) potassium channel (Q12809 whole entry, looked up): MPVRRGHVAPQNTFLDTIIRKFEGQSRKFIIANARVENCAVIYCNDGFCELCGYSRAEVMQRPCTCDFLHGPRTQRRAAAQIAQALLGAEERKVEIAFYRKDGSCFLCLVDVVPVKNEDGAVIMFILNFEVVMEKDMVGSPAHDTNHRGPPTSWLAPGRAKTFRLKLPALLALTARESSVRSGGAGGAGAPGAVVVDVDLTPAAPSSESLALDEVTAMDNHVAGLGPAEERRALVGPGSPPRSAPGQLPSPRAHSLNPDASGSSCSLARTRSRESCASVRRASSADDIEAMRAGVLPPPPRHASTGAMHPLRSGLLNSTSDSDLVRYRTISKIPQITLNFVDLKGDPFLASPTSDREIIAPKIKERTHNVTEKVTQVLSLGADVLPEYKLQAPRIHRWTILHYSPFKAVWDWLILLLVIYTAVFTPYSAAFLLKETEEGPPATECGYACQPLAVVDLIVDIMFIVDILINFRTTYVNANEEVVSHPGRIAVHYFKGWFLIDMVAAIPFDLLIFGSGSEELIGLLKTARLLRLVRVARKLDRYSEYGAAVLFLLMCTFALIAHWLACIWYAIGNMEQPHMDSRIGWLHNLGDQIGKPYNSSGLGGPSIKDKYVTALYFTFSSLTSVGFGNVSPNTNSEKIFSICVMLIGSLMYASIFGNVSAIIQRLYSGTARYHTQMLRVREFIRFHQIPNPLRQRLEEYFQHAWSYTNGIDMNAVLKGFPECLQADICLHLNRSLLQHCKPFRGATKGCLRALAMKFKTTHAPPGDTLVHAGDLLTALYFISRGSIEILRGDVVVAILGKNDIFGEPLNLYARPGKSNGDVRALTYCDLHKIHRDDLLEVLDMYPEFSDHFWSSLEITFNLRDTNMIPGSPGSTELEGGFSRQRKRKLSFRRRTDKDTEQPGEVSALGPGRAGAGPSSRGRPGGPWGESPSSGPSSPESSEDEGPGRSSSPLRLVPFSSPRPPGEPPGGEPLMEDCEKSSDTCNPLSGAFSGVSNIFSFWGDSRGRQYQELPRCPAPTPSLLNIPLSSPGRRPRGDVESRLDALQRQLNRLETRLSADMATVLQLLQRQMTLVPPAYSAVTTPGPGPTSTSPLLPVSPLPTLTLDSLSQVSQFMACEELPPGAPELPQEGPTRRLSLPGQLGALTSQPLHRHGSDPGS

| SMILES | hERG current change (%, negative = inhibition) at 1uM |
| --- | --- |
| C=C1CC[C@@]2(O)[C@H]3Cc4ccc(O)c5c4[C@@]2(CCN3CC2CC2)[C@H]1O5 | 3.67% |
| C=C1CC2C(CCC3(C)C2CCC3(O)C(C)=O)C2(C)CCC(=O)C=C12 (stereo not shown) | 18.4% |
| CN(CC(O)COc1ccc(S(=O)(=O)N2CCOCC2)cc1)C1CCCCC1 (stereo not shown) | 0.581% |
| O=C(CC(c1ccccc1)c1ccccc1O)NCCN1CCOCC1 (stereo not shown) | 12.8% |
| Cc1cccc2c(-c3ccccc3)cc(=O)[nH]c12 | 10.7% |
| CCOC(=O)c1ccc(NC(=O)CN2C(=O)C3C4C=CC(C4)C3C2=O)cc1 (stereo not shown) | 10.9% |
| O=C(O)CCS(=O)(=O)c1ccc(-c2ccccc2)cc1 | 13.5% |
| O=C1NC(=O)N(Cc2ccco2)C(=O)/C1=C\c1ccc(-c2ccc(F)cc2)o1 | 7.38% |
| O=C1C(=O)N(CCCO)C(c2ccccc2)/C1=C(\O)c1ccc(Br)cc1 (stereo not shown) | 14.6% |
| N/C(=N\OC(=O)CCCc1ccccc1)c1ccc(Br)cc1 | 13.4% |
| O=C(CCCC(=O)OCC(=O)c1ccc(Cl)cc1Cl)Nc1cc(C(F)(F)F)ccc1Cl | 6.47% |
| C=CCOC(=O)C1=C(C)OC(N)=C(C#N)C1c1ccc(OC)c(CSc2ccccn2)c1 (stereo not shown) | 5.31% |
| O=C(CSc1nnc(C2CCCCC2)n1Cc1ccccc1)NCc1ccco1 | 1.83% |
| CC(=O)c1ccc(NC(=O)c2ccn(C(=O)OCC(C)C)n2)cc1 | -5.67% |
| O=C(Cc1csc(Nc2nc(=S)[nH]c3ccccc23)n1)NCCCN1CCN(c2cccc(Cl)c2)CC1 | 9.77% |
| O=C(COc1ccc(Cl)cc1Cl)NC(=O)N1CCOCC1 | 2.09% |
| COc1ccc(NC(=O)C2CCCN(S(=O)(=O)c3ccccc3)C2)c(OC)c1 (stereo not shown) | 12.7% |
| COc1ccc(/C=C/C(=O)Nc2cccc(S(=O)(=O)N3CCCC3)c2)cc1OC | 14.6% |
| Cc1ccc(N2CC(C(=O)Nc3ccc(S(=O)(=O)N4CCCC4)cc3)CC2=O)cc1C (stereo not shown) | 11.2% |
| CCN1C(=O)/C(=C2\SC(=S)N(CCCOC)C2=O)c2ccccc21 | 3.86% |
| COC(=O)c1cn(CC(=O)Nc2ccc(F)cc2)c2ccccc12 | 8.52% |
| Cc1nc(SC2CC(=O)N(c3ccc([N+](=O)[O-])cc3)C2=O)nc2c1CCCC2 (stereo not shown) | 9.26% |

| SMILES | hERG current change (%, negative = inhibition) at 1uM |
| --- | --- |
| CC(N=C1NS(=O)(=O)c2ccccc21)C(=O)OCC(=O)N(C)C1CCS(=O)(=O)C1 (stereo not shown) | -1.85% |
| CCOC(=O)c1c(NC(=O)C(C)S(=O)(=O)c2cn(CC)c3ccccc23)sc2c1CCCC2 (stereo not shown) | 11.6% |
| Cc1ccc2nc(C)c(C(=O)N/N=C/c3ccc(C(=O)O)cc3)cc2c1 | 13.2% |
| O=C(NNC(=O)c1ccc2c(c1)OCO2)NC1CCCCC1 | 12.1% |
| CCOc1cc(NC(=O)c2ccco2)c(OCC)cc1NC(=O)CCc1ccccc1OC | 3.94% |
| COc1ccc(C2=NOC3(CC(=O)N(c4ccc5ccccc5c4)C3=O)C2)c(OC)c1 (stereo not shown) | 22.1% |
| CCOCCCNC(=O)c1cn(CC)c2ccc(S(=O)(=O)N3CCC(C)CC3)cc2c1=O | 7.25% |
| O=C(O)c1ccc(/C=N/N2CCN(Cc3cccc4ccccc34)CC2)cc1 | 8.98% |
| COc1ccc(-c2oc3ncn(CCN4CCOCC4)c(=N)c3c2-c2ccc(OC)cc2)cc1 | -7.75% |
| Cc1cc(C)c(NC(=O)CSc2nnc(-c3ccccn3)n2N)c(Cl)c1 | 8.52% |
| Cc1ccc(NC(=O)CN(C)C(=O)c2cc3c(s2)CCCCC3)cc1 | 7.6% |
| C=CCn1c(SCC(=O)Nc2ncc(Cc3ccc(Br)cc3)s2)nnc1-c1ccncc1 | 13% |
| C#CCNC(=O)C1CCN(c2ccc(S(=O)(=O)N3CCOCC3)cc2Cl)CC1 | 6.8% |
| O=C(NC(=S)Nc1ccccc1C(=O)O)c1cncc(Br)c1 | 18.7% |
| Cc1cc(C)cc(N(CC(=O)NCCSc2ccccn2)S(=O)(=O)c2ccccc2)c1 | -26.8% |
| O=C(NCc1c(Cl)cccc1Cl)c1ccc2nnsc2c1 | 11.4% |
| O=C1CCCCC1C(Nc1ccc(Cl)cc1)c1ccccc1 (stereo not shown) | 0.276% |
| O=C(CSCc1ccc(Cl)cc1)Nc1ccc2c(c1)OCCO2 | -0.795% |
| Cc1c(C(=O)N(C)CCCCN2CCOCC2)oc2c(F)cccc12 | 13.7% |
| CC(=O)Nc1cccc(NC(=O)Cc2ccc3ccccc3c2)c1 | 13% |
| O=C(Nc1ncc(S(=O)(=O)c2ccc([N+](=O)[O-])cc2)s1)c1cccnc1 | 8.48% |
| O=C(O)CSCc1nc2ccccc2[nH]1 | 13.9% |

| SMILES | hERG current change (%, negative = inhibition) at 1uM |
| --- | --- |
| COC(=O)c1ccccc1S(=O)(=O)N1CCC(C(=O)OC(C)C(=O)Nc2ccccc2OC)CC1 (stereo not shown) | -8.9% |
| CCN1CCN(CCc2nc3cc(NC(=O)COc4ccccc4)ccc3n2C)CC1 | 0.262% |
| CCN(c1ccc(OC)cc1)S(=O)(=O)c1nnc(NC(=O)C2CCCCC2)s1 | 10.7% |
| COc1ccc2c(c1)c(=O)c(C(=O)c1ccccc1)cn2Cc1ccccc1 | -21.1% |
| NS(=O)(=O)c1ccc(CCNC(=S)Nc2ccc(F)cc2)cc1 | 10.5% |
| CN(C)CCn1c(NCc2ccc3c(c2)OCO3)nc2ccccc21.Cl | -2.76% |
| CCNCCNC(=O)c1c(O)c2c([nH]c1=O)CCCC2 | 6.63% |
| COc1cccc(NS(=O)(=O)c2cc3c(cc2C)N(C(C)=O)CCO3)c1 | 8.57% |
| Clc1cc2c(c(CSc3nc4ccccc4n4cccc34)c1)OCOC2 | 13.1% |
| COc1nc(-c2ccc(Cl)cc2)ccc1-c1noc(-c2ccco2)n1 | 6.89% |
| CC(C)S(=O)(=O)c1cnc(-c2cccnc2)nc1N | 14.7% |
| Cc1cc2cc(CCNS(=O)(=O)c3ccc(F)cc3)c(=O)[nH]c2cc1C | 5.7% |
| Cc1ccccc1NC(=O)Cc1nc(COC(=O)c2ccc(O)cc2O)cs1 | -3.47% |
| O=C(NC(C(Cl)Cl)N1CCOCC1)c1ccccc1 (stereo not shown) | 9.9% |
| CN(Cc1ccccc1)C(=O)COC(=O)c1cc(NS(=O)(=O)c2cccs2)ccc1O | 8.4% |
| Cc1nn(C)c(C)c1NC(=O)CSc1nnc(C)n1-c1ccccc1 | -0.866% |
| COc1cccc(NC(=O)C(C)OC(=O)c2n[nH]c3ccccc23)c1 (stereo not shown) | 3.85% |
| CN(C)CCN(C(=O)c1ccc(S(=O)(=O)N2CCc3ccccc32)cc1)c1nc2ccc(F)cc2s1.Cl | -6.93% |
| O=C(CSc1nnnn1Cc1ccccc1)NC1CCCCC1 | 6.27% |
| COc1cccc(N2CCN(S(=O)(=O)c3ccc4c(c3)oc(=O)n4C)CC2)c1 | 22.7% |
| COc1cc(/C=N/NC(=O)c2ccoc2C)cc(OC)c1OC | 10.5% |
| Cc1oc(C)c(C(N)=O)c1C(N)=O | -0.345% |

| SMILES | hERG current change (%, negative = inhibition) at 1uM |
| --- | --- |
| O=C(c1ccccc1)N1CCN(c2ccc(NCc3ccc4c(c3)OCO4)cc2)CC1 | 7.27% |
| Cc1ccc(-c2nc(-c3nccc4ccccc34)oc2-c2ccccc2)cc1 | 12.2% |
| Cc1ccc(SCCC(=O)N/N=C/c2ccccc2O)cc1 | 11.6% |
| CC(C)CN(C(=O)c1ccc(-n2cncn2)c([N+](=O)[O-])c1)C1CCS(=O)(=O)C1 (stereo not shown) | 1.22% |
| CC(C)c1nc2sc3c(c2c(=O)[nH]1)CC(C)(C)OC3 | 11.4% |
| CC(C)NC(=O)Cn1c(=O)c2c(ncn2Cc2ccccc2)n(Cc2ccccc2)c1=O | 2.78% |
| O=C(c1cnn(-c2ccccc2)c1)c1cc(Br)ccc1O | 10.2% |
| O=C(CSc1nnc(COc2ccc(Cl)cc2)o1)NC1CC2CCC1C2 (stereo not shown) | 10.9% |
| CCN(c1ccccc1)S(=O)(=O)c1ccc(Cl)c(NC(=O)CSc2ncn[nH]2)c1 | 8.02% |
| CCCC(=O)Nc1ccc(C(=O)NCc2ccccc2Cl)cc1 | 16.6% |
| Oc1ccccc1/C=N/Nc1cccc2cccnc12 | -8.07% |
| Br.CCCC1CC(=O)OC1(C)C(=O)CSc1n[nH]c(-c2ccccc2)n1 (stereo not shown) | 4.86% |
| Cl.Oc1ccc(C(c2nnnn2C2CCCCC2)N2CCOCC2)cc1 (stereo not shown) | 12.6% |
| CC(=O)NCCC(=O)Nc1ncc(S(=O)(=O)c2ccc([N+](=O)[O-])cc2)s1 | 17.3% |
| c1ccc(-c2nnc(CN3CCC4(CC3)OCCO4)o2)cc1 | 8.84% |
| Cc1nc2cc(N3CCCCC3)c(NC(=O)c3cccnc3)cc2c(=O)n1Cc1ccccc1 | 5.96% |
| CC(=O)Oc1cc(C)cc2oc(=O)cc(-c3ccccc3)c12 | 11.4% |
| Cc1ccc(C2C(C#N)=C(N)Oc3c2sc2ccccc32)o1 (stereo not shown) | 7.93% |
| COc1ccc(N(CC(=O)Nc2cc(Cl)ccc2C)S(=O)(=O)c2c(C)noc2C)cc1 | 22.5% |
